pIC50: −log10 of the molar value. By IC50 is meant the dose at which the fit gives 50% viability; a limit (>, <) means that the fit lies beyond the doses tested. For AUC the same curve is integrated over the 256-fold range of doses and scaled to a fraction; values near 1 show little effect. For part of these data: The top dose, if marked as inferred, is not printed in the source and was worked back from the curve model.
Tests used:
Assay in all cases: Viability of human cancer cell lines after 72 h of drug (GDSC screen)
ABT-263 = compound: CC1(C)CCC(c2ccc(Cl)cc2)=C(CN2CCN(c3ccc(C(=O)NS(=O)(=O)c4ccc(N[C@H](CCN5CCOCC5)CSc5ccccc5)c(S(=O)(=O)C(F)(F)F)c4)cc3)CC2)C1 [ABT-263]; conditions: top dose 2 µM; top dose inferred
Procedure: (§1)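 Human cancer cell lines in 384-well plates, medium with 10% serum, drug for 72 h over a 256-fold dose range (nine 2-fold or five 4-fold steps up to the top dose). Adherent lines were fixed and stained with the nucleic acid dye Syto60, suspension lines read with resazurin; signal relative to control wells, capped at 0 and 100%. One two-parameter sigmoid per drug and line, fitted in a mixed model over all curves with the slope shared within a line.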

GW843682X = compound: COc1cc2ncn(-c3cc(OCc4ccccc4C(F)(F)F)c(C(N)=O)s3)c2cc1OC [GW843682X]; conditions: top dose 0.256 µM
Procedure: as §1

piperlongumine = compound: COc1cc(/C=C/C(=O)N2CCC=CC2=O)cc(OC)c1OC [piperlongumine]; conditions: top dose 10 µM
Procedure: as §1

GW 441756 = compound: Cn1cc(/C=C2\C(=O)Nc3cccnc32)c2ccccc21 [GW 441756]; conditions: top dose 2 µM; top dose inferred
Procedure: as §1

PIK-93 = compound: CC(=O)Nc1nc(C)c(-c2ccc(Cl)c(S(=O)(=O)NCCO)c2)s1 [PIK-93]; conditions: top dose 20 µM
Procedure: as §1

Salubrinal = compound: O=C(/C=C/c1ccccc1)NC(NC(=S)Nc1cccc2cccnc12)C(Cl)(Cl)Cl [Salubrinal]; conditions: top dose 16 µM; top dose inferred
Procedure: as §1

Cell Line | AUC (ABT-263) | pIC50 (ABT-263) | AUC (GW843682X) | pIC50 (GW843682X) | AUC (piperlongumine) | pIC50 (piperlongumine) | AUC (GW 441756) | pIC50 (GW 441756) | AUC (PIK-93) | pIC50 (PIK-93) | AUC (Salubrinal) | pIC50 (Salubrinal)
LB831-BLC (bladder, adherent) | 0.957 | < 5.70 | 0.828 | 6.79 | 0.783 | 5.37 | 0.975 | < 5.70 | 0.91 | < 4.70 | 0.919 | < 4.80
ATN-1 (T-cell lymphoblastic leukaemia, suspension) | 0.049 | > 8.11 | 0.48 | 7.85 | 0.918 | < 5.00 | 0.709 | 6.33 | 0.584 | 5.68 | 0.844 | 4.98
L-428 (Hodgkin lymphoma, suspension) | 0.802 | 6.07 | 0.72 | 7.21 | 0.927 | < 5.00 | 0.992 | < 5.70 | 0.912 | < 4.70 | 0.894 | 4.82
MN-60 (B-cell leukaemia, suspension) | 0.988 | < 5.70 | 0.963 | < 6.59 | 0.89 | < 5.00 | 0.985 | < 5.70 | 0.8 | 5.00 | 0.988 | < 4.80
Farage (B-cell lymphoma, suspension) | 0.805 | 6.10 | 0.597 | 7.55 | 0.992 | < 5.00 | 0.993 | < 5.70 | 0.535 | 5.82 | 0.928 | < 4.80
BB49-HNC (head and neck, adherent) | 0.965 | < 5.70 | 0.848 | < 6.59 | 0.624 | 5.80 | 0.978 | < 5.70 | 0.937 | < 4.70 | 0.952 | < 4.80
EB-3 (Burkitt lymphoma, suspension) | 0.978 | < 5.70 | 0.844 | 6.64 | 0.759 | 5.39 | 0.984 | < 5.70 | 0.624 | 5.54 | 0.813 | 4.98
BT-474 (breast, adherent) | 0.982 | < 5.70 | 0.946 | < 6.59 | 0.81 | 5.22 | 0.965 | < 5.70 | 0.726 | 5.22 | 0.952 | < 4.80
LS-513 (large intestine, adherent) | 0.975 | < 5.70 | 0.825 | 6.79 | 0.798 | 5.30 | 0.97 | < 5.70 | 0.802 | 4.98 | 0.934 | < 4.80
KNS-42 (glioma, adherent) | 0.952 | < 5.70 | 0.589 | 7.53 | 0.792 | 5.26 | 0.984 | < 5.70 | 0.877 | < 4.70 | 0.905 | < 4.80
ES7 (Ewing sarcoma, adherent) | 0.805 | 5.98 | 0.957 | < 6.59 | 0.605 | 5.91 | 0.944 | < 5.70 | 0.398 | 6.19 | 0.912 | < 4.80
GDM-1 (acute myeloid leukaemia, suspension) | 0.5 | 6.90 | 0.339 | 8.24 | 0.842 | 5.18 | 0.987 | < 5.70 | 0.354 | 6.30 | 0.972 | < 4.80
SR (lymphoid neoplasm, suspension) | 0.575 | 6.71 | 0.411 | 8.03 | 0.746 | 5.54 | 0.985 | < 5.70 | 0.303 | 6.43 | 0.929 | < 4.80
NCI-H1975 (lung adenocarcinoma, adherent) | 0.947 | < 5.70 | 0.657 | 7.33 | 0.72 | 5.54 | 0.877 | < 5.70 | 0.861 | < 4.70 | 0.931 | < 4.80
RL (B-cell lymphoma, suspension) | 0.74 | 6.25 | 0.985 | < 6.59 | 0.989 | < 5.00 | 0.99 | < 5.70 | 0.365 | 6.26 | 0.983 | < 4.80
COLO-684 (endometrium, suspension) | 0.977 | < 5.70 | 0.668 | 7.30 | 0.79 | 5.30 | 0.984 | < 5.70 | 0.703 | 5.30 | 0.913 | < 4.80
ES4 (Ewing sarcoma, adherent) | 0.84 | 5.77 | 0.572 | 7.59 | 0.735 | 5.48 | 0.954 | < 5.70 | 0.627 | 5.53 | 0.952 | < 4.80
SUP-M2 (anaplastic large cell lymphoma, suspension) | 0.983 | < 5.70 | 0.597 | 7.56 | 0.711 | 5.68 | 0.994 | < 5.70 | 0.858 | 4.97 | 0.832 | 5.15

From the supplement of paper PMC4967469
